Measurements from the supplement of paper PMC6135742.
Counter-ions that a name gives are not always drawn. ± gives the standard deviation of the averaged measurements. Over roughly 2,600 compounds, “total cell number (DAPI+ nuclei) relative to DMSO vehicle control” has its median near -1.4; the lowest 2% begin near -23. The list shows a part of the results.

Test system: jimpy (Plp1 jimpy) mouse iPSC-derived oligodendrocyte progenitor cells
Experiment: total cell number (DAPI+ nuclei) relative to DMSO vehicle control (SDs above negative control mean); higher = more surviving cells
Conditions: 10 µM; 3 days

Row | Compound | total cell number
1 | C[C@]12CC[C@H](O)CC1=CC[C@@H]1[C@@H]2CC[C@]2(C)C(n3cnc4ccccc43)=CC[C@@H]12 [Galeterone] | 1.94
2 | NC(=O)C1=CN(C2OC(COP(=O)(O)OP(=O)(O)OC[C@H]3O[C@@H](n4cnc5c(N)ncnc54)C(OP(=O)(O)O)[C@H]3O)C(O)C2O)C=CC1 (stereo partly drawn) [NADPH tetrasodium] | -1.06
3 | CC(O)C(O)[C@H]1CNc2nc(N)[nH]c(=O)c2N1 (stereo partly drawn) [(6R)-5,6,7,8-Tetrahydro-L-biopterin hydrochloride] | -1.76
4 | CNS(=O)(=O)CCc1ccc2[nH]cc(C3CCN(C)CC3)c2c1 [Naratriptan hydrochloride] | -1.55
5 | CNS(=O)(=O)CCc1ccc2[nH]cc(C3CCN(C)CC3)c2c1 [Naratriptan] | 0.491
6 | O=C(O)[C@H]1NCCC[C@H]1C(=O)O (racemic) [(±)-cis-Piperidine-2,3-dicarboxylic acid] | 1.76
7 | CC(=O)Oc1ccccc1C(=O)O [Aspirin] | -0.191
8 | CC(=O)Oc1ccccc1C(=O)O [Acetylsalicylic acid] | -1.06
9 | N=C(N)NS(=O)(=O)c1ccc(N)cc1 [Sulfaguanidine] | 1.55
10 | COc1ccc2ccc(=O)oc2c1CC=C(C)C [Osthole] | -1.22
11 | Cc1ccc(NC(=O)c2ccc(CN3CCN(C)CC3)cc2)cc1Nc1nccc(-c2cccnc2)n1 [Imatinib Mesylate (STI571)] | -14
12 | Cc1ccc(NC(=O)c2ccc(CN3CCN(C)CC3)cc2)cc1Nc1nccc(-c2cccnc2)n1 [Imatinib (STI571)] | -7.2
13 | Cc1nn(-c2ccccc2)c(C)c1C=NN1CCN(Cc2ccccc2)CC1 | 3.84 ± 1.1
14 | Oc1cc2c(c(Cl)c1O)CCNCC2c1ccccc1 (racemic) [(±)-6-Chloro-PB hydrobromide] | -2.06
15 | CC(C)C(=O)Oc1ccc(CO)cc1[C@H](CCN(C(C)C)C(C)C)c1ccccc1 [Fesoterodine Fumarate] | -3.56
16 | O=C(O)C(=O)O.[NH-][C@@H]1CCCC[C@H]1[NH-].[Pt+2] [Oxaliplatin] | -23.4
17 | CCc1cc2c(cc1N1CCC(N3CCOCC3)CC1)C(C)(C)c1[nH]c3cc(C#N)ccc3c1C2=O | -4.28
18 | CCc1c2c(nc3ccc(O)cc13)-c1cc3c(c(=O)n1C2)COC(=O)[C@]3(O)CC | -3.4
19 | Fc1ccc(CN(C2=NCCN2)c2c(Cl)cccc2Cl)cc1 [IMID-4F hydrochloride] | -6.12
20 | CCOC(=O)O[C@]1(C(=O)OCCl)CC[C@H]2[C@@H]3CCC4=CC(=O)C=C[C@]4(C)[C@H]3[C@@H](O)C[C@@]21C [Loteprednol etabonate] | -1.9
21 | O=C(O)CNC(=O)C(CS)Cc1ccccc1 (racemic) [DL-Thiorphan] | -1.82
22 | Clc1ccc(C(Cn2ccnc2)OCc2ccsc2Cl)c(Cl)c1 (stereo not drawn) [Tioconazole] | -1.08
23 | COc1cc2c(c(OC)c1OC)-c1c(cc3c(c1OC)OCO3)CC(C)C(C)C2 (stereo not drawn) [Schisandrin B (Sch B)] | 0.739
24 | c1cnc(N2CCN(Cc3ccc4c(c3)OCO4)CC2)nc1 [Piribedil maleate] | 0.73
25 | C[C@](N)(Cc1ccc(O)c(O)c1)C(=O)O [L-alpha-Methyl DOPA] | -1.22

Row | Compound | total cell number
26 | Cc1c(C(=O)NN2CCCCC2)nn(-c2ccc(Cl)cc2Cl)c1-c1ccc(Cl)cc1 [Rimonabant] | -2.91
27 | C[C@H]1c2cccc(O)c2C(=O)C2=C(O)[C@]3(O)C(=O)C(C(N)=O)=C(O)[C@@H](N(C)C)[C@@H]3[C@@H](O)[C@@H]21 [Doxycycline Hyclate] | 4.54
28 | C[C@H]1c2cccc(O)c2C(=O)C2=C(O)[C@]3(O)C(=O)C(C(N)=O)=C(O)[C@@H](N(C)C)[C@@H]3[C@@H](O)[C@@H]21 [Doxycycline HCl] | 1.84
29 | C[C@H]1c2cccc(O)c2C(=O)C2=C(O)[C@]3(O)C(=O)C(C(N)=O)=C(O)[C@@H](N(C)C)[C@@H]3[C@@H](O)[C@@H]21 [Doxycycline hydrochloride] | 2.82
30 | COc1cc2c(cc1OC)CC(=O)N(CCCN(C)C[C@H]1Cc3cc(OC)c(OC)cc31)CC2 [Ivabradine HCl] | -0.509
31 | CN1CC(=O)N2[C@H](c3ccc4c(c3)OCO4)c3[nH]c4ccccc4c3C[C@@H]2C1=O [Tadalafil] | -0.473
32 | CCN(C(=O)c1c(O)c2c(Cl)cccc2n(C)c1=O)c1ccccc1 [Laquinimod] | -1.22
33 | CCc1nc(N)nc(N)c1-c1ccc(Cl)cc1 [Pyrimethamine] | 14.7
34 | Cc1c(C(=O)NN2CCCCC2)nn(-c2ccc(Cl)cc2Cl)c1-c1ccc(I)cc1 | -7.02
35 | CC(C)NCC(O)COc1ccc(CCOCC2CC2)cc1 (stereo not drawn) [Betaxolol hydrochloride] | -1.49
36 | CC(C)NCC(O)COc1ccc(CCOCC2CC2)cc1 (stereo not drawn) [Betaxolol] | 4.24
37 | CCCN1CCCC[C@H]1C(=O)Nc1c(C)cccc1C [Ropivacaine HCl] | -0.0603
38 | Cc1ccc(S(=O)(=O)N[C@@H](Cc2ccccc2)C(=O)CCl)cc1 [N-p-Tosyl-L-phenylalanine chloromethyl ketone] | -0.79
39 | CC(C)(OCc1nn(Cc2ccccc2)c2ccccc12)C(=O)O [Bindarit] | -1.02
40 | Nc1n[n+]([O-])c2ccccc2[n+]1[O-] [Tirapazamine] | -6.5
41 | Cc1cccc(-c2[nH]c(C(C)(C)C)nc2-c2ccc3c(c2)OCO3)n1 | -9.25
42 | CC(NC(=O)c1ccccc1/N=C/c1c(O)ccc2ccccc12)c1ccccc1 (stereo not drawn) [Sirtinol] | -0.73
43 | COc1cc(OC2CCN(C)CC2)ccc1Nc1ncc2c(n1)n(C1CCCC1)c(=O)n2C | -7.07
44 | C1COC(NC(C2CC2)C2CC2)=N1 [Rilmenidine hemifumarate] | -1.55
45 | Cn1c(=O)[nH]c2ncn(C)c2c1=O [1,7-Dimethylxanthine] | -1.33
46 | C#CCN[C@@H]1CCc2ccccc21 [Rasagiline Mesylate] | 1.16
47 | COc1ccc(NS(=O)(=O)c2sc3ccc(Cl)cc3c2C)cc1N1CCNCC1 | -3.32
48 | CCCn1c(=O)[nH]c(=O)c2[nH]cnc21 [3-n-Propylxanthine] | -0.654
49 | C[N+](C)(C)CC=O [Betaine aldehyde chloride] | -1.57
50 | OC[C@H]1O[C@@H](n2cnc3c(NC4CCCC4)ncnc32)[C@H](O)[C@@H]1O [N6-Cyclopentyladenosine] | -0.867

Row | Compound | total cell number
51 | CCOc1nc2cccc(C(=O)OCc3oc(=O)oc3C)c2n1Cc1ccc(-c2ccccc2-c2noc(=O)[nH]2)cc1 [Azilsartan Medoxomil] | -0.583
52 | COc1ccccc1Oc1c(NS(=O)(=O)c2ccc(C(C)(C)C)cc2)nc(-c2ncccn2)nc1OCCO [Bosentan Hydrate] | -0.436
53 | C[S+]([O-])c1ccc(-c2nc(-c3ccc(F)cc3)c(-c3ccncc3)[nH]2)cc1 (stereo not drawn) | -13.3
54 | O=C(/C=C/c1ccc(O)cc1)CC(=O)/C=C/c1ccc(O)cc1 [Bisdemethoxycurcumin] | 0.0609
55 | COc1cc2c(Oc3ccc(NC(=O)C4(C(=O)Nc5ccc(F)cc5)CC4)cc3F)ccnc2cc1OCCCN1CCOCC1 | -27
56 | O=C(O)Cc1c[nH]c2ccc(O)cc12 [5-Hydroxyindolacetic acid] | -1.23
57 | CCN(c1nc(N)c(C(=O)NC(=N)N)nc1Cl)C(C)C [5-(N-Ethyl-N-isopropyl)amiloride] | -4.19
58 | CC(C)[N+](C)(CCOC(=O)C1c2ccccc2Oc2ccccc21)C(C)C [Propantheline bromide] | 1.22
59 | CN1CCC[C@@H]1Cc1c[nH]c2ccc(CCS(=O)(=O)c3ccccc3)cc12 [Eletriptan HBr] | -2.64
60 | CN1CCC[C@@H]1Cc1c[nH]c2ccc(CCS(=O)(=O)c3ccccc3)cc12 [Eletriptan hydrobromide] | -0.403
61 | CN(C)CCC=C1c2ccccc2COc2ccccc21 [Doxepin hydrochloride] | -4.35
62 | O=C(O)CCNC(=O)c1ccccc1 [Betamipron] | -0.864
63 | O=C(N[C@H](CO)[C@H](O)c1ccc([N+](=O)[O-])cc1)C(Cl)Cl [Chloramphenicol] | 1.99
64 | CO[C@H]1/C=C\C=C(/C)C(=O)NC2=CC(=O)C(NCCN(C)C)=C(C[C@@H](C)C[C@H](OC)[C@H](O)[C@@H](C)/C=C(\C)[C@@H]1OC(N)=O)C2=O [17-DMAG (Alvespimycin) HCl] | -26.5
65 | CCC[C@@H]1C[C@@H](C(=O)N[C@@H]([C@H]2O[C@H](SC)[C@H](O)[C@@H](O)[C@H]2O)[C@H](C)Cl)N(C)C1 [Clindamycin] | -1.66
66 | CCC[C@@H]1C[C@@H](C(=O)N[C@@H]([C@H]2O[C@H](SC)[C@H](O)[C@@H](O)[C@H]2O)[C@H](C)Cl)N(C)C1 [Clindamycin HCl] | -0.134
67 | CC(=O)N[C@@H](Cc1c[nH]c2ccccc12)C(=O)OCc1cc(C(F)(F)F)cc(C(F)(F)F)c1 | -0.0963
68 | CCN(CC)CCOC(=O)c1cc(Cl)c(N)cc1OC [SDZ-205,557 hydrochloride] | -1.66
69 | C=C1/C(=C\C=C2/CCC[C@]3(C)[C@@H]([C@H](C)CCCC(C)C)CC[C@@H]23)C[C@@H](O)C[C@@H]1O [Alfacalcidol] | -17.2
70 | NC/C=C/C(=O)O [(E)-4-amino-2-butenoic acid] | -1.89
71 | CN(C)C/C=C(/c1ccc(Br)cc1)c1cccnc1 [Zimelidine dihydrochloride] | -5.1
72 | CCOc1ccc2ccccc2c1C(=O)N[C@@H]1C(=O)N2[C@@H]1SC(C)(C)[C@@H]2C(=O)O [Nafcillin Sodium] | 0.904
73 | CCN(CC)CCNC(=O)c1cc(Cl)c(N)cc1OC [Metoclopramide hydrochloride] | -0.654
